# The inconclusive results got no clear call from the source; some entries with a clear call stand among them for comparison. For some assays here: No potency is given beside an inconclusive call; the fits are too rough. The source made the active and inactive calls. Unless noted, the call rests on the fitted dose curve; in most records, active means well fitted curve in the direction sought with a large enough effect; inconclusive means small, poorly fitted or top-dose-only effect, or another doubt; inactive means no such curve, though single readings can be large; an effect the other way counts as inactive or inconclusive.
# Tests used:
# [1] = qHTS for differential inhibitors of proliferation of Plasmodium falciparum line 7G8 (AID 1815);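 further: potency means the concentration at half of the fitted maximal effect; parasite growth measured after three days of incubation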
# [2] = qHTS for differential inhibitors of proliferation of Plasmodium falciparum line GB4 (AID 1816); settings: Potency: Plasmodium falciparum GB4 proliferation inhibition;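 further: potency means the concentration at half of the fitted maximal effect; parasite growth measured after 72 h incubation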
# [3] = qHTS for differential inhibitors of proliferation of Plasmodium falciparum line 3D7 (AID 1876); further: potency means the concentration at half of the fitted maximal effect
# [4] = qHTS for differential inhibitors of proliferation of Plasmodium falciparum line D10 (AID 1877);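 further: potency means the concentration at half of the fitted maximal effect; parasites grown with compound for 72 h before DNA staining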
# [5] = qHTS for differential inhibitors of proliferation of Plasmodium falciparum line Dd2 (AID 1882); settings: Potency: Plasmodium falciparum Dd2 proliferation inhibition; further: potency means the concentration at half of the fitted maximal effect; nearly all actives have a fitted effect of over 65% in size
# Procedure, shortened: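 Dd2-infected erythrocytes (0.3% parasitemia, 2.5% hematocrit final) incubated with compound 72 h at 37 C, 5% CO2; lysed with saponin/Triton buffer containing SYBR Green I, incubated overnight in the dark, then read by fluorescence (485/535 nm). Normalized to 0.29 uM artemisinin and DMSO.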
# [6] = molecular target: Ferritin light chain (Equus caballus) (UniProt P02791); test: qHTS Validation Assay for Identification of Novel General Anesthetics (AID 2323)
# Sequence of UniProt P02791 (P02791 2-175 limits assumed): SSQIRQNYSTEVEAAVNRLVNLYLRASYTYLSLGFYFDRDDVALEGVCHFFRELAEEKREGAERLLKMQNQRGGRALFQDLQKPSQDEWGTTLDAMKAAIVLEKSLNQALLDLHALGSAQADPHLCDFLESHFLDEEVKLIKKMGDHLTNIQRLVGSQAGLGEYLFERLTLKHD
# Procedure, shortened: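 10 uM horse-spleen apoferritin + 1-AMA (50% saturated, PBS); cpd pin-transferred, 10 min RT. Ex 380/Em 535 nm endpoint. Activity normalized between free 1-AMA and 1-AMA/apoferritin; 4-parameter Hill fit of concentration-response.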
# [7] = molecular target: RecQ-like DNA helicase BLM (Homo sapiens) (UniProt P54132); test: qHTS Validation Assay for Inhibitors of Bloom's syndrome helicase (BLM) (AID 2364)
# Sequence of UniProt P54132 (P54132 whole entry, looked up): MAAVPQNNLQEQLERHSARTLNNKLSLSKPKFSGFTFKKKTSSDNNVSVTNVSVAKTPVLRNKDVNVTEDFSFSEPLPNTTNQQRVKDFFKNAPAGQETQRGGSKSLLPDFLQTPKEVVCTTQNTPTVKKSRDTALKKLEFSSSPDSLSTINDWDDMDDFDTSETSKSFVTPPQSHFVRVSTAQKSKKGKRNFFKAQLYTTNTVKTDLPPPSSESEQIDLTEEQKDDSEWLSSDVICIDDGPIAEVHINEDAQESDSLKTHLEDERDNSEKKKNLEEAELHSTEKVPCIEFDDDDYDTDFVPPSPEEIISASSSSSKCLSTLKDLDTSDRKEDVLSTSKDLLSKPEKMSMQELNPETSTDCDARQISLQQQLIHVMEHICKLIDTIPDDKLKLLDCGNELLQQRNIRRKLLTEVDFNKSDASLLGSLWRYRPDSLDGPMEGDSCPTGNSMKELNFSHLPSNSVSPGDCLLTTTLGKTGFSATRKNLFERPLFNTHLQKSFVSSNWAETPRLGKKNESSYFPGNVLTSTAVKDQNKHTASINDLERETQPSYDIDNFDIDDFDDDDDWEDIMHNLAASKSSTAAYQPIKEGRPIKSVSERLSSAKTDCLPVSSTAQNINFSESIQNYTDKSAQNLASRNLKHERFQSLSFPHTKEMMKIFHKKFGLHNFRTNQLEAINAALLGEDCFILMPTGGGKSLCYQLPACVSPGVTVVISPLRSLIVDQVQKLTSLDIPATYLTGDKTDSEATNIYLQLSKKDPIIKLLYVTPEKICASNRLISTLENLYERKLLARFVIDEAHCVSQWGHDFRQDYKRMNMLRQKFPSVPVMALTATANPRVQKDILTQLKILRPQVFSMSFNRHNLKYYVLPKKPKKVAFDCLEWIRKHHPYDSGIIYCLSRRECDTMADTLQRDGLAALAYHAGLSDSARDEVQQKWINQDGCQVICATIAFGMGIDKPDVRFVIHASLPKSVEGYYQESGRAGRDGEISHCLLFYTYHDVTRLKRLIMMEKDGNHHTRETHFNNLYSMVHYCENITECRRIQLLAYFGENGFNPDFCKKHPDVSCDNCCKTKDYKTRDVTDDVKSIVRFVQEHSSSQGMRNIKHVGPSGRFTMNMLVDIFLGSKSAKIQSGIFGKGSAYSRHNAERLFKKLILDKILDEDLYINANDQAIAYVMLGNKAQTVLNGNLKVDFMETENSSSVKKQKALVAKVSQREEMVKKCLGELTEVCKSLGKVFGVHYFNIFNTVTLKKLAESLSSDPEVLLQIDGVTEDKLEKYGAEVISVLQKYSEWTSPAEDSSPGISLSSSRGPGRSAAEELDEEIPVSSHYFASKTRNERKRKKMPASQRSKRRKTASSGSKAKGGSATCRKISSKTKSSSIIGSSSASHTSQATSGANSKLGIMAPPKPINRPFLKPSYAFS
# Procedure, shortened: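 Forked 20-bp duplex substrate (200 nM, TAMRA/BHQ-2) plus 2 mM ATP added after 15 min compound preincubation with 50 nM enzyme, pH 8.0, poly(dI-dC) 2.5 ug/ml. Strand separation followed by fluorescence (525/598 nm) over 2 h, normalized to enzyme-free and DMSO controls.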
# [8] = High Content Imaging Cell-Based qHTS for Inhibitors of the mTORC1 Signaling Pathway in MEF (Tsc2-/-, p53-/-) Cells (AID 2666);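 further: percent of cells scored positive for phospho-rpS6 Ser235/236 immunostaining by imaging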
# Procedure, shortened: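 Cells were plated, dosed with compound after 24 hrs, and incubated another 24 hrs at 37 degree Celsius. Fixed cells were immunostained for phospho-rpS6 Ser235/236 and counterstained, and the normalized signal was scored as % active cells against rapamycin and DMSO controls.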
# [9] = Validation screen for small molecules that induce DNA re-replication in MCF 10A normal breast cells (AID 463097); further: nearly all actives have a fitted effect of over 60% in size
# Procedure, shortened: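 250 MCF 10A cells/well; compound pin-transferred; 48 hr, 37 C, 5% CO2; Hoechst 40 min; imaged 405/500-530 nm. Hits = more high-intensity nuclei.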
# [10] = molecular target: ATP-dependent 6-phosphofructokinase (Trypanosoma brucei brucei) (UniProt O15648); test: qHTS Validation Assay to Find Inhibitors of T. brucei phosphofructokinase (AID 485368); settings: activity change, negative = inhibition: at 57.5 µM (top of the series)
# Sequence of UniProt O15648 (O15648 whole entry, looked up): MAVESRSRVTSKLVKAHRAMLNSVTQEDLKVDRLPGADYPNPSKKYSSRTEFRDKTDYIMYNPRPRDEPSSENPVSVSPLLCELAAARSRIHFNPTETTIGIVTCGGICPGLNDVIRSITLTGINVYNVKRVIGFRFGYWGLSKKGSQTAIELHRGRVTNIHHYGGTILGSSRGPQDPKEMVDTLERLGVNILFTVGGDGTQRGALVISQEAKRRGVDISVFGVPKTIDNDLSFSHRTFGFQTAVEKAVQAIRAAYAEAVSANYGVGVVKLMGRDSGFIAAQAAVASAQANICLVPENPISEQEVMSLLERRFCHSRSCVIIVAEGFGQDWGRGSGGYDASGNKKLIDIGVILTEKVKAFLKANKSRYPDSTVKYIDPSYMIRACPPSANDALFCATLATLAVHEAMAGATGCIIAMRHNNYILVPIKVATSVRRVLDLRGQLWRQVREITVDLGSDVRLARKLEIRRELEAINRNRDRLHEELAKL
# Procedure, shortened: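 Steps: substrate mix (0.5 mM F6P, 0.1 mM ATP, MgCl2, TEA pH 8.0); compound; 1.25 nM T. brucei PFK; 45 min RT; ATP depletion 10 min; ADP-to-ATP detection 10 min; luminescence read; curve fitting and classification.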
# [11] = Quantitative high throughput screen for delayed death inhibitors of the malarial parasite plastid, 96 hour incubation (AID 488745); further: potency means the concentration at half of the fitted maximal effect; nearly all actives have a fitted effect of over 70% in size
# Procedure, shortened: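 Luciferase-expressing P. falciparum in erythrocytes (2% hematocrit, 0.1% parasitemia) incubated with compound for 96 h at 37 C, 5% CO2, in RPMI 1640 with 0.5% Albumax. Growth inhibition read as decreased luminescence.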
# [12] = molecular target: ATPase family AAA domain-containing protein 5 (Homo sapiens) (UniProt Q96QE3); test: Validation screen for small molecules that inhibit ELG1-dependent DNA repair in human embryonic kidney (HEK293T) cells expressing luciferase-tagged ELG1 (AID 493107); settings: HEK293T ELG1-luciferase level, luminescence, 5-fluorouridine co-treatment, 16 h; series mostly up to 46.1 µM; further: potency means the concentration at half of the fitted maximal effect; nearly all actives have a fitted effect of over 70% in size
# Procedure, shortened: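 HEK293T cells expressing luciferase-tagged ELG1, 2,000 per well, treated with 5-fluorouridine plus compound for 16 h at 37 C. ONE-Glo luminescence after 30 min at room temperature reports ELG1 reporter level.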
# [13] = qHTS for Inhibitors of ATXN expression: Validation of Cytotoxic Assay (AID 588349); further: potency means the concentration at half of the fitted maximal effect
# Procedure, shortened: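 HEK293 cells treated with titrated compound for 72 hr at 37 degrees C; viability read as intracellular ATP by CellTiter Glo luminescence.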
# [14] = qHTS for Inhibitors of ATXN expression: Validation (AID 588378); further: potency means the concentration at half of the fitted maximal effect; nearly all actives have a fitted effect of over 75% in size
# Procedure, shortened: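 Cells: HEK293-ATXN2-FFLuc, phenol-red free DMEM, 2 h attachment. Compound pin-transfer, 24 h, 37 degrees C, 5% CO2. CellTiter-Fluor 30 min, Ex405/Em525; Bright-Glo 5 min, luminescence 2 s exposure.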
# [15] = molecular target: Glutaminase kidney isoform, mitochondrial (Homo sapiens) (UniProt O94925); test: qHTS for Inhibitors of Glutaminase (GLS): LOPAC Validation (AID 624146);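 further: glutamate product detected by oxidase and peroxidase coupled Amplex red fluorescence gain; nearly all actives have a fitted effect of over 60% in size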
# Sequence of UniProt O94925 (O94925 whole entry, looked up, canonical isoform): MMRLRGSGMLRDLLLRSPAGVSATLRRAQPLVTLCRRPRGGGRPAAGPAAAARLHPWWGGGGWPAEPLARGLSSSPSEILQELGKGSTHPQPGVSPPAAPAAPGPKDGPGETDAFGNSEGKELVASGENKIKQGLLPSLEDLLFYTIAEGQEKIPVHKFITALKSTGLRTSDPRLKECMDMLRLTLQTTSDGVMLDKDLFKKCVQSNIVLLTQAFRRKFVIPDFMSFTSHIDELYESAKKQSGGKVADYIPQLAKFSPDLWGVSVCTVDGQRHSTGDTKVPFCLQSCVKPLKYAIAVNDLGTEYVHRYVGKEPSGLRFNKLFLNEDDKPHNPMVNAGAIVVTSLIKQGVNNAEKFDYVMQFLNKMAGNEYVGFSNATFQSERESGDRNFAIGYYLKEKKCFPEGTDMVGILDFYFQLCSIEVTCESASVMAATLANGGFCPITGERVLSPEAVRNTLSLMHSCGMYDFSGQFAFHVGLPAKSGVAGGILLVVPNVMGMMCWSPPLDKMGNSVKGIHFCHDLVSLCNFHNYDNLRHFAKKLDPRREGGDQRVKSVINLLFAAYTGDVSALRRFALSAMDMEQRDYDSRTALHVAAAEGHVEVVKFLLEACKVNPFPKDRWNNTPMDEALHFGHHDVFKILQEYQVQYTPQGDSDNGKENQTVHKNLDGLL
# Procedure, shortened: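 Two-point fluorescence kinetic (t0, 30 min RT) for hKGA; glutamate detected via glutamate oxidase–HRP–Amplex Red. Substrate: 1 mM L-glutamine solution; buffer 45 mM KH2PO4, pH 8.2.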
# [16] = Natriuretic polypeptide receptor (hNpr1) antagonism - Pilot counterscreen GloSensor control cell line (AID 1347045; calls by dose curve; further: potency means the concentration at half of the fitted maximal effect)
# Procedure, shortened: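 HEK293 cGMP GloSensor cells preloaded 2 h with 2% GloSensor reagent, then compound 30 min before baseline luminescence read. Stimulated with 50 uM sodium nitroprusside, 20 min at room temperature, then read again; counterscreen for Npr1 antagonism.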
# [17] = molecular target: N-terminal Xaa-Pro-Lys N-methyltransferase 1 (Homo sapiens) (UniProt Q9BV86); test: qHTS Assay for Inhibitors of N-terminal methyltransferase 1 (NTMT1): LOPAC validation of the NTMT1 SAHH-coupled ThioGlo3 Assay (AID 1347143);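 further: SAH from peptide methylation measured as thiol fluorescence via SAHH coupling and ThioGlo3; potency means the concentration at half of the fitted maximal effect; nearly all actives have a fitted effect of over 70% in size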
# Sequence of UniProt Q9BV86 (Q9BV86 whole entry, looked up): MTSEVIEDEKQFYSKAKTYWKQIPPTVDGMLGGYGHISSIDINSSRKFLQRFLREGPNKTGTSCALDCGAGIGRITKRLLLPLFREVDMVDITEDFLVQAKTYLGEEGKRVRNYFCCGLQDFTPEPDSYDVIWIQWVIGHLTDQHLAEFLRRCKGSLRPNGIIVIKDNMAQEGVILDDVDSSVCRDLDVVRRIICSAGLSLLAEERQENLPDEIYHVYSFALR
# Procedure, shortened: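 Inhibition of NTMT1 methylation of peptide SPKRIA is followed by converting SAH with SAHH and labelling the released thiol with ThioGlo3. Plates are read at 340/450nm before and 30 min after reagent addition, both at room temperature.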
# [18] = molecular target: Lysine-specific demethylase 5B (Homo sapiens) (UniProt Q9UGL1); test: Optimization screen for KDM5B Histone Demethylases FDH coupled qHTS against the LOPAC library (AID 1347166); settings: KDM5B demethylation, FDH-coupled NADH fluorescence (FDH is formaldehyde dehydrogenase); series mostly up to 57.5 µM; further: potency means the concentration at half of the fitted maximal effect
# Sequence of UniProt Q9UGL1 (Q9UGL1 whole entry, looked up): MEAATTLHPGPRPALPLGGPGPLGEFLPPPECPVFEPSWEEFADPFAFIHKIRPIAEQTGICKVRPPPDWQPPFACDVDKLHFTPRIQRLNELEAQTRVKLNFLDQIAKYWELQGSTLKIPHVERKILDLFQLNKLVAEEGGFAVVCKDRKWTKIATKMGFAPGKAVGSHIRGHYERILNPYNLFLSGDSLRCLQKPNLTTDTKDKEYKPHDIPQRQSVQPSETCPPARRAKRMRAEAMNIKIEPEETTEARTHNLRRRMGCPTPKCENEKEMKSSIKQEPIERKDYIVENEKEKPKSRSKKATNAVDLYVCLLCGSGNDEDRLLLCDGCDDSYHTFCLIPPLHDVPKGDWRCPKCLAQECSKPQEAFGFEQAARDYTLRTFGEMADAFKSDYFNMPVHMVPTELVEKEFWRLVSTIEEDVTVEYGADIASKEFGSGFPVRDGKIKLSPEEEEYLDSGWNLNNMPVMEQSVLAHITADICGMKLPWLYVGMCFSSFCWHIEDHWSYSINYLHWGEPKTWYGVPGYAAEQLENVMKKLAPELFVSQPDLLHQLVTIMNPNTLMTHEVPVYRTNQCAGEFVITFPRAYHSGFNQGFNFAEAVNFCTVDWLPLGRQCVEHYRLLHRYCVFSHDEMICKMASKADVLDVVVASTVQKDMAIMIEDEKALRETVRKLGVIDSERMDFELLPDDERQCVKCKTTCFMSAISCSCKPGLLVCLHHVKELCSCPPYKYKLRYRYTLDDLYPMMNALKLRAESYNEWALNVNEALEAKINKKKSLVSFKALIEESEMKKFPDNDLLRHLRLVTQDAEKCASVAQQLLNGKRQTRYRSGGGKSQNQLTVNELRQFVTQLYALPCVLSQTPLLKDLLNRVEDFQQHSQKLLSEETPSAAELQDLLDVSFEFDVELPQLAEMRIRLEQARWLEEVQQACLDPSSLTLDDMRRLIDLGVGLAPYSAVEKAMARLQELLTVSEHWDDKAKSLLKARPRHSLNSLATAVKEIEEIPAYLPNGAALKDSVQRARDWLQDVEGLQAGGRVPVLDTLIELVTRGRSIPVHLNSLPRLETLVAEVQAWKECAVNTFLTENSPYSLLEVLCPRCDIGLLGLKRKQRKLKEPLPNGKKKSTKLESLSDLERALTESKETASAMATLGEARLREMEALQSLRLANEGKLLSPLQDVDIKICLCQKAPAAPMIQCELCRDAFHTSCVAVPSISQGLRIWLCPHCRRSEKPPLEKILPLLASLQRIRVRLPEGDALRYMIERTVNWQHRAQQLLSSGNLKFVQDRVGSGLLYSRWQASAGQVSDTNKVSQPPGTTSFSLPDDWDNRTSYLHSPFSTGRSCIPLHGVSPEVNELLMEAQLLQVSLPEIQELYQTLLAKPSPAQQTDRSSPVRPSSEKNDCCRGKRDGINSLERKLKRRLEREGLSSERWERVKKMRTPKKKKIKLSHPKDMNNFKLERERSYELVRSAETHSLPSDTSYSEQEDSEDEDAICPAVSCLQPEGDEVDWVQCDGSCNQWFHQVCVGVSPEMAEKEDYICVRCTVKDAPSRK
# Procedure, shortened: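 KDM5BDeltaAP (200nM final) preincubated 10 min with compound, then 12.5uM H3K4Me3, 25uM a-ketoglutarate, ascorbate, Fe(II), NAD+ and FDH added; 50mM HEPES pH 7.5, 0.01% Tween-20. NADH fluorescence (340/450 nm) change over 30 min, room temperature.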
# [19] = Primary qHTS for small molecule stabilizers of the endoplasmic reticulum resident proteome: Secreted ER Calcium Modulated Protein (SERCaMP) assay (AID 1508630); settings: SH-SY5Y GLuc-SERCaMP (Gaussia luciferase released on ER calcium loss) secretion, thapsigargin, luminescence; activity change, negative = inhibition: at 38.4 µM (top of the series) unless noted; further: potency means the concentration at half of the fitted maximal effect
# Procedure, shortened: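 GLuc-SERCaMP-expressing SH-SY5Y cells, pretreated 16 h with compound, are challenged with thapsigargin to empty ER calcium stores; after 4 h, coelenterazine is added directly to the medium and luminescence is imaged.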
# [20] = molecular target: Glutathione peroxidase 1 (Homo sapiens) (UniProt P07203); test: Primary qHTS Assay for Inhibitors of Recombinant Selenoprotein Glutathione Peroxidase 1 (GPX1) (AID 1845191); further: potency means the concentration at half of the fitted maximal effect; nearly all actives have a fitted effect of over 65% in size
# Sequence of UniProt P07203 (P07203 whole entry, looked up): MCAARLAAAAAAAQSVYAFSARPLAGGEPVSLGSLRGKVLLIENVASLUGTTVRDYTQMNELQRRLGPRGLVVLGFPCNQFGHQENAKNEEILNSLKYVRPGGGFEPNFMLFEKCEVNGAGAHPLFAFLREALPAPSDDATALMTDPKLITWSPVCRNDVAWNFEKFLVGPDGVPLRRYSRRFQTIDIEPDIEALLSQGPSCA
# Procedure, shortened: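 10 nM GPX1 + cpd, 30 min RT; start w/ 1 mM GSH, 0.5 mM cumene hydroperoxide, 0.5 mM NADPH, 100 nM GR, 0.01% BSA; buffer 50 mM Tris-HCl pH 7.5, 2 mM EDTA, 150 mM NaCl; Fl 340/450, 0 & 15 min.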
# [21] = molecular target: Phospholipid hydroperoxide glutathione peroxidase GPX4 (Homo sapiens) (UniProt P36969); test: Primary qHTS Assay for Inhibitors of Recombinant Selenoprotein Glutathione Peroxidase 4 (GPX4) (AID 1845192); settings: activity change, negative = inhibition: at 50 µM (top of the series) unless noted; further: potency means the concentration at half of the fitted maximal effect; nearly all actives have a fitted effect of over 65% in size
# Sequence of UniProt P36969 (P36969 whole entry, looked up): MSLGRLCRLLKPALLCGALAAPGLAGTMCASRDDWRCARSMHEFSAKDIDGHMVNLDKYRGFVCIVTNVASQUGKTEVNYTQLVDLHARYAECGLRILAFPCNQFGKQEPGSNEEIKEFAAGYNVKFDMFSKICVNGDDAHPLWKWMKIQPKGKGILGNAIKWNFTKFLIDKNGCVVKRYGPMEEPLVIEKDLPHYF
# Procedure, shortened: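 NADPH consumption, followed by fluorescence at 340/450 nm between 0 and 15 min, reports GPX4 activity via coupled glutathione reductase (100 nM). Enzyme 200 nM was pre-exposed to compound 30 min; 0.5 mM cumene hydroperoxide and 1 mM GSH served as substrates.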
# Tov-21-G = test: Primary qHTS to identify gynecologic anti-cancer compounds using libraries of approved drugs and bioactive compounds (AID 1345084); settings: Gynecologic cancer cell panel viability, ATPlite luminescence, 48 h; series mostly up to 57.5 µM; further: potency means the concentration at half of the fitted maximal effect; nearly all actives have a fitted effect of over 55% in size
# Procedure, shortened: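 Five-concentration response, 48 h; readout is ATP-driven luciferase luminescence.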
# [22] = Drug repurposing screens with cells derived from glioblastoma tumor samples (AID 1345199); settings: GBM patient neurospheres viability, ATP luminescence, 48 h; Potency: tumour line A unless noted; series mostly up to 46 µM; further: potency means the concentration at half of the fitted maximal effect; nearly all actives have a fitted effect of over 40% in size
# Procedure, shortened: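 Four patient lines of CD133+ GBM neurospheres were screened at several concentrations; hits were retested in those lines plus three slower-growing GBM lines, using 48-hour treatment and ATP-based viability.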
# Tags describe the fitted curve by direction and shape.
structure (smiles),measurement,setting,value
CC(CCc1ccccc1)NCC(O)c1ccc(O)c(C(N)=O)c1 (stereo not drawn),Potency,[1],active: 7.94 µM
same,Potency,[2],active: 10 µM
same,Potency,[3],active: 10 µM
same,Potency,[4],active: 12.6 µM
same,Potency,[5],"inconclusive [inhibitor, single point]"
same,Potency,[6],inactive
same,Potency,[7],inactive
same,Potency,[8],inactive
same,Potency,[9],inactive
same,Potency,[10],inactive
same,Potency,[11],"inconclusive [inhibitor, single point]"
same,Potency,[12],"inconclusive [inhibitor, partial curve]"
same,Potency,[13],"inconclusive [cytotoxic, partial curve]"
same,Potency,[14],"inconclusive [inhibitor, partial curve, poor fit]"
same,Potency,[15],inactive
same,Potency,[16],"inconclusive [inhibitor, partial curve, poor fit]"
same,Potency,[17],active: 56.2 µM
same,Potency,[18],"inconclusive [inhibitor, partial curve, poor fit]"
same,Potency,[19],"inconclusive [inhibitor, single point]"
same,Potency,[20],"inconclusive [inhibitor, partial curve]"
same,Potency,[21],"inconclusive [inhibitor, single point]"
same,Potency,Tov-21-G,"inconclusive [cytotoxic, single point]"
same,Potency,[22],"inconclusive [inhibitor, partial curve, poor fit]"
